For one data set, the system named is Coxsackie virus B3. Put plainly: microbe, parasite or virus in culture. The following applies: Enterovirus B, B3, Huh-7.
For data set [1] the following is noted: mouse, in vivo, po.

`CC(C)OC(=O)[C@H](C)N[P@](=O)(OC[C@@]1(F)O[C@@H](n2ccc(=O)[nH]c2=O)[C@H](O)[C@@H]1O)Oc1ccccc1` [EIDD-3232, isopropyl ((S)-(((2S,3S,4R,5R)-5-(2,4-dioxo-3,4-dihydropyrimidin-1(2H)-yl)-2-fluoro-3,4-dihydroxytetrahydrofuran-2-yl)methoxy)(phenoxy)phosphoryl)-L-alaninate] yielded an EC50 in the data set with Coxsackie virus B3 of 18 µM. Moreover, in data set [1] (female, ICR (CD-1)), the “Tmax, EIDD-2991 in kidney” value amounted to 1 h; the “Tmax, EIDD-2991 in liver” value came to 2 h; the “Tmax, EIDD-2991 in lung” value is 1 h; the “Tmax, EIDD-2991 in spleen” value is given as 4 h. In data set [1] (female, ICR (CD-1)), the “t1/2, EIDD-2991 in heart” value is recorded as 22.4 h; the “t1/2, EIDD-2991 in kidney” value came to 133 h; the “t1/2, EIDD-2991 in liver” value is given as 29.0 h; the “t1/2, EIDD-2991 in lung” value is on record as 286 h. Moreover, the “t1/2, EIDD-2991 in spleen” value in data set [1] (female, ICR (CD-1)) amounted to 46.7 h. Further, in data set [1], the “AUC24, EIDD-2991 in kidney” value stood at 86.1 nmol·h/g; the “AUC24, EIDD-2991 in liver” value was determined as 202 nmol·h/g; the “AUC24, EIDD-2991 in lung” value stood at 128 nmol·h/g; the “AUC24, EIDD-2991 in spleen” value stood at 190 nmol·h/g. Also, in data set [1], the “AUCinf, EIDD-2991 in kidney” value worked out at 611 nmol·h/g; the “AUCinf, EIDD-2991 in liver” value was 457 nmol·h/g; the “AUCinf, EIDD-2991 in lung” value turned out to be 2400 nmol·h/g; the “AUCinf, EIDD-2991 in spleen” value came out at 593 nmol·h/g. Besides, in data set [1], the “Cmax, EIDD-2991 in kidney” value amounted to 6.67 nmol/g; the “Cmax, EIDD-2991 in liver” value is reported as 16.3 nmol/g; the “Cmax, EIDD-2991 in lung” value was 6.37 nmol/g; the “Cmax, EIDD-2991 in spleen” value was 13.0 nmol/g.

Turning to `O=c1ccn([C@@H]2O[C@](F)(CO)[C@@H](O)[C@H]2O)c(=O)[nH]1` [EIDD-2749, 4′-fluorouridine], in data set [1] (female, ICR (CD-1)), the “t1/2, EIDD-2991 in kidney” value is reported as 17.4 h; the “t1/2, EIDD-2991 in liver” value turned out to be 17.2 h; the “t1/2, EIDD-2991 in lung” value is 30.1 h; the “t1/2, EIDD-2991 in spleen” value was determined as 26.9 h.

The record behind these values is US20260124226A1 (priority 2023, published 2026).
